# Data reported in the supplement of paper PMC10185492.
# The list shows a part of the results. These are enrichments in a pooled selection; single values are uncertain.
# Test system: SARS-CoV-2 3CLpro (nsp5)
# Test: substrate phage enrichment score (protease-eluted vs HEPES control, +1 offset) (ratio); higher = better cleaved substrate
# Details: selection round: 4; protease elution time: 15 min
# Description: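 Random heptapeptide substrate phage display (M13 pIII fusion, heptapeptide between an N-terminal biotinylated AviTag GLNDIFEAQKIEWHE and pIII; phages immobilised on streptavidin) eluted by cleavage with 50 nM protease in 20 mM HEPES at 37 °C. Selected phages were NGS sequenced, and the enrichment score is (reads in protease sample + 1)/(reads in HEPES blank-selection control + 1).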
row,Substance,substrate phage enrichment score
1,LEAPLTT,> 51
2,QSTTRTS,12.2
3,IWAAHHH,0.368
4,WPAAHHH,1.39
5,LHKSSST,2.22
6,FAGMRSM,1.36
7,KTQYFQG,4.33
8,DSFGAYT,5.2
9,ERKPCGL,0.125
10,SRAGVTW,> 21
11,RVSIRCR,> 43
12,SRPHIII,0.476
13,CSYRLRP,0.55
14,AGPEQMN,> 27
15,YLIQCEQ,> 41
16,TNAATMQ,> 45
17,PPIGNAS,> 27
18,SGAAETC,1.81
19,CGAGQSP,> 42
20,RSAAHHH,0.87
21,ASCRPVK,> 21
22,LPCPTLR,> 24
23,KGCLLTR,> 40
24,YPCCWQT,> 45
25,SRVLGVG,> 26

row,Substance,substrate phage enrichment score
1,HHHHHGA,0.236
2,GLWCPRC,> 30
3,CAAAPQH,1.42
4,ISETTFP,0.6
5,IRPVCEK,> 55
6,DGARRDG,1.72
7,GLGAGNQ,1.13
8,AARVPGE,> 34
9,SRCGDTR,> 32
10,PNESAGI,> 23
11,WRQPSQR,0.685
12,TVLQSYP,20
13,RPLPETN,0.138
14,SPQLCQP,> 41
15,QVPTKWR,1.38
16,VNYYSPR,> 24
17,PQSAETL,7
18,GLNNTQT,6.67
19,VPRDLRQ,1.01
20,STCGPKG,> 32
21,SDTRMNR,> 45
22,TYEKPQK,0.417
23,ETSRPER,10
24,IPTATLT,2.04
25,NELTPAK,> 25

row,Substance,substrate phage enrichment score
1,ACMTGPV,6.67
2,RVKLQAQ,> 66
3,RCYSTLQ,> 169
4,KENNSRG,2.71
5,ASGTGVS,12.7
6,TNATGIS,> 22
7,ESYFQGG,0.533
8,NRDLSAQ,> 49
9,HERTHFW,2.24
10,SWPSYRQ,13.7
11,QRNQWYQ,5
12,LNYYKRD,1.46
13,WQYNTYG,1.56
14,AEQQRLQ,2.3
15,KARDNRG,> 26
16,KSRLMPG,0.158
17,PRAKRDI,0.00717
18,DMRASQP,6.4
19,NSNIMKA,1.69
20,TNAAAHH,0.4
21,HPERNDV,7.33
22,VQYFQGG,6.67
23,LQSRTDT,> 49
24,CFYPELQ,> 66
25,SKSSYMG,7

row,Substance,substrate phage enrichment score
1,KKNYNEQ,1.41
2,AHEHSWP,0.467
3,PYCCARN,1.29
4,GARLTPR,0.562
5,WSSAAHH,0.692
6,SGSDTQC,2.71
7,VESASSD,1.89
8,SSPCKLQ,> 39
9,ESRPRTN,0.48
10,KAAAHHH,0.968
11,HERQETR,0.087
12,SRGTAEL,10
13,RSTWSKP,> 23
14,AHAGWHK,1.64
15,DSAAHHH,0.255
16,LSMPADR,> 64
17,SPTTILQ,> 47
18,TWMTQLQ,> 40
19,MHGVHDR,> 53
20,CLRQPIN,3.62
21,PSAHHHH,0.375
22,PRATSVT,3.83
23,RASKIGI,> 34
24,KQYGQGG,1.27
25,GSERSCR,7.33

row,Substance,substrate phage enrichment score
1,SQSACHK,0.0972
2,RTANPFR,0.167
3,AKRDTEI,5
4,KRQYLQP,> 27
5,SGTDESL,3.18
6,AVRCELQ,> 124
7,ICAPRPS,> 35
8,ETTSRES,0.25
9,KQCVTRN,1.88
10,LYRERPD,15
11,RGHWTTQ,1.71
12,VTRTHLQ,> 42
13,RQSVQKH,> 32
14,HSRKDCG,1.52
15,FPFRTNH,1.46
16,RGLCICR,> 22
17,SKSPQVF,20.3
18,KGQVPSP,0.0882
19,LSNPVDY,0.8
20,RRILRFR,> 139
21,PRLPSLQ,> 23
22,SSGSVAC,> 21
23,YWPTKKG,0.316
24,GERHVSC,6.2
25,SCTHRWP,79

row,Substance,substrate phage enrichment score
1,QDAPRIL,4
2,CLAAHHH,0.606
3,TDVKQFQ,1.2
4,QHKALSR,> 24
5,ANEIHFG,0.967
6,TPGTSSN,> 27
7,SKAGREE,6.25
8,ICMAGEC,4.5
9,PHAIRSH,1.44
10,RSTAHHH,0.0909
11,EPTYPLS,> 24
12,ATWTIRA,3.38
13,KAHGTGT,> 21
14,GSTSTLP,4.6
15,PNSMHPK,0.353
16,ARGIELR,3.57
17,EEPPGGC,0.556
18,SSESWTT,0.565
19,SKPSACR,10
20,THAKPQS,7.75
21,RATRARE,0.522
22,WYRCPAR,9.33
23,HKTSYVK,2.43
24,SNALFRN,> 22
25,ERCTTLH,> 36

row,Substance,substrate phage enrichment score
1,EPNTPIT,> 33
2,THAAVTP,3.12
3,CWAAHHH,0.414
4,GCAESMC,1
5,LYFKGGS,1.67
6,PNERNSR,> 37
7,TCNVNLQ,> 245
8,LTGSMLQ,58
9,HEATARD,> 21
10,GSQTQCS,8.5
11,EASTEYG,0.357
12,QYAPGMT,6.25
13,KGVDRTL,27.7
14,PLMNMAE,> 27
15,CKNSSQL,6.43
16,YLLPGKQ,> 26
17,GRHVILQ,> 105
18,LHARPGQ,> 29
19,SCRRPRD,1
20,PAPMEPS,> 23
21,SKVRMGS,> 22
22,YCRGNLN,> 31
23,VIPTTVN,> 23
24,AEYRASC,> 21
25,SSRQSVR,> 48

row,Substance,substrate phage enrichment score
1,VLPHIII,0.75
2,IYTVTEQ,> 23
3,SWSQFYR,9
4,PILRNRN,0.087
5,AGLSPNR,> 65
6,TATPRPL,3.8
7,QCDRPEK,> 34
8,ACVDMLT,> 22
9,DSTQPSA,> 24
10,EDTGNMV,0.0536
11,GAPASRS,3.17
12,VPTSRLQ,> 42
13,GDDGNWQ,> 35
14,VCMETQH,> 22
15,QTWPSRL,> 47
16,SGRKGNP,6.17
17,CSKTNSK,0.3
18,QKGVKMQ,19.3
19,SCSQPAG,1.53
20,IVRPHII,0.619
21,DIPRSYP,> 23
22,VYGRCAV,> 22
23,TDTEAWS,> 39
24,RSGAHHH,2.29
25,CVRRIEP,> 22

row,Substance,substrate phage enrichment score
1,LQAAHHH,1.7
2,CRDAHDS,11
3,ERIHTQG,> 25
4,QQPEYMV,1.33
5,SNTEPRD,23.3
6,EFRACPP,> 30
7,RRPDHFH,1.21
8,YTDALRQ,1.12
9,LTETNPS,> 25
10,ESDENHA,7.25
11,QNGMESA,4.33
12,PESPLKN,8.27
13,NPRVSLQ,> 42
14,VGVCGRV,6.25
15,KCQRTHI,2.83
16,CTPQKCQ,> 25
17,IRTDLSA,0.3
18,SKTGTKC,> 40
19,RSCVLQS,> 29
20,YPSMRPQ,3.4
21,CQGSVKG,> 44
22,DCAAAHH,0.481
23,QLHSQNG,11.3
24,VESSVRQ,3.69
25,CTGATLQ,> 29

row,Substance,substrate phage enrichment score
1,QRAPCPL,> 46
2,GSATRLQ,> 103
3,GVSAYDN,1.85
4,NAGERDR,> 37
5,QQCTNGW,15.3
6,SDALTSK,3.33
7,RRDAIPV,1.73
8,QYMPVPR,4.17
9,PMTTRLQ,> 30
10,LNRIEQT,> 24
11,SRAFNRE,> 34
12,RQGTLSP,2.8
13,REGHIRL,0.5
14,SGIRQLV,2.57
15,AERLSCY,1.86
16,YRTPVSG,> 38
17,CDRGCAY,1.14
18,LEPGLTR,5.43
19,HECDLYP,1.46
20,PHDCTVG,> 21
21,CPCNVTR,> 21
22,RKLNTLG,> 52
23,NSRAGRS,47
24,VNYNNKT,> 29
25,PGGTCTG,> 51

row,Substance,substrate phage enrichment score
1,NSDAQRS,5
2,CQSRGPT,0.421
3,TKQSYSG,> 28
4,PAAHHHH,0.885
5,ASQGGAK,> 36
6,YSRGDME,> 22
7,SYGSDAR,2.6
8,NAAVRRP,> 84
9,GGYNGAM,> 34
10,TNGHLNA,> 33
11,GSTAAHH,0.412
12,HARATTA,72.5
13,MHVPNSP,3.33
14,CATPDCA,> 34
15,AHRAGNV,3.89
16,SIGQTHS,> 91
17,ASDSVLQ,> 69
18,PCAKSQE,0.262
19,LGQPDLW,> 38
20,PPVAEQH,33
21,SWQVGNS,7.88
22,SPQQTPI,0.0375
23,LAVPPRD,> 22
24,PLREALP,> 21
25,QWRPVQI,3.09

row,Substance,substrate phage enrichment score
1,SRQLYSP,> 35
2,QGNLNTC,0.194
3,ASAAHHH,1.34
4,HERNGLG,0.0444
5,KHQLPVR,> 53
6,KHCGSNG,13.5
7,VLLTDPV,> 25
8,VRPQKAP,> 38
9,NREQNAD,> 25
10,GSDAPSP,> 26
11,PSGRCSR,> 34
12,AERINTR,> 29
13,VKTSWPP,> 58
14,VAWPQLQ,> 49
15,GHAEAQT,> 33
16,RVAAHHH,1.56
17,NHWAGTA,> 25
18,ANTSGLN,0.6
19,GCTTHGA,> 24
20,KCQSLDW,3.48
21,SESELPD,2.41
22,HLHFQGG,2.36
23,TREIYSE,2.75
24,THNQIMK,5
25,APCPASR,5.5

row,Substance,substrate phage enrichment score
1,LLPLEAR,6
2,GQAAKLQ,78
3,KTDVNLH,> 21
4,PVVENAR,> 29
5,PKAAHHH,0.753
6,VHMKVER,> 24
7,NKPHVQG,> 24
8,QHAITGH,1.67
9,GLRLFFR,> 25
10,TAGVTLH,24
11,LTRLCAE,4.14
12,TPVSGCQ,> 42
13,AQSSVTI,9.17
14,TNAAHHH,0.45
15,GAATLQA,> 55
16,SRQRNRQ,> 22
17,PIQTKQC,> 26
18,RPVPKVC,4.5
19,GQAHPCG,> 23
20,MYYWPWR,2.9
21,CDVLPLR,> 41
22,CGLGGYR,0.52
23,SNCWRAA,> 25
24,ACNQSVK,> 23
25,ECNFQGG,> 47

row,Substance,substrate phage enrichment score
1,TRSGKPP,1.07
2,QELYSQG,> 26
3,TPDLTPV,> 43
4,KAQLMSN,> 24
5,AMTCTLQ,> 35
6,TPAAHHH,0.608
7,SAAILQS,> 24
8,GQRLRLP,1.64
9,NTIAVMQ,20
10,NGSPNSS,4.5
11,RKCILQS,> 59
12,ESRQGVC,> 39
13,TQGSVSH,> 93
14,DTAAHHH,0.494
15,SFAKDGP,8.25
16,AQAVMQS,> 23
17,NPQSPSP,> 29
18,APNMRSQ,0.192
19,SRPHFQG,> 42
20,EARAMLQ,> 22
21,RPQHLIK,> 21
22,LLLPKED,> 27
23,TWNYRPS,> 21
24,VTIDNGA,2.29
25,ITQHRFP,> 25

row,Substance,substrate phage enrichment score
1,QDMRSVH,> 24
2,TPGRLEV,2.1
3,LTQRSNT,> 24
4,QVIPSVK,> 227
5,DPQRKFL,8.53
6,AHCTQLQ,266
7,DREEKMR,40.5
8,MSGITHG,2.21
9,STGEYRQ,0.194
10,STQGGSA,1.15
11,QIDTMSR,> 27
12,SVYQTRD,> 21
13,STPAMMA,2.29
14,HCGDAAA,2
15,STTTREP,> 26
16,NASAHHH,1.53
17,TPPAHHH,3.8
